Test results published in patent US11420968B2 (priority 2018, dated 2022).
Read-outs that look alike come from different tables or passages of the source.

What was measured:
Molt-4 cells [1] = assay: cells; settings: Homo sapiens, MOLT-4, read-out: Cellular activity (IC50, nM) Molt-4
RS4;11 cells [2] = test system: RS4;11 cells
Molt-4 cells [3] = test system: Molt-4 cells
RS4;11 cells [4] = assay: cells; settings: Homo sapiens, RS4-11, 48 h
[5] = read-out: Cellular activity (IC50, nM) RS4;11
[6] = read-out: Cellular activity (IC50, nM) Molt-4

Compound	IC50 (RS4;11 cells [2]; [5]) [nM]	IC50 (Molt-4 cells [3]; [6]) [nM]	further results
CN1CCCC(c2ccccc2C2CCCN2c2ccc(-c3ccc(C(=O)NS(=O)(=O)c4ccc(NCC5CCOCC5)c([N+](=O)[O-])c4)c(Oc4cnc5[nH]ccc5c4)c3)cc2)C1 (single isomer, unassigned) [Example A117a, 3-((1H-pyrrolo[2,3-b]pyridin-5-yl)oxy)-4′-(2-(2-(1-methylpiperidin-3-yl)phenyl)pyrrolidin-1-yl)-N-((3-nitro-4-(((tetrahydro-2H-pyran-4-yl)methyl)amino)phenyl)sulfonyl)-[1,1′-biphenyl]-4-carboxamide]	11	–	IC50 (Molt-4 cells [1]): 8960 nM
CN1CCCC(c2ccccc2C2CCCN2c2ccc(-c3ccc(C(=O)NS(=O)(=O)c4ccc(NCC5CCOCC5)c([N+](=O)[O-])c4)c(Oc4cnc5[nH]ccc5c4)c3)cc2)C1 (single isomer, unassigned) [Example A117b, 3-((1H-pyrrolo[2,3-b]pyridin-5-yl)oxy)-4′-(2-(2-(1-methylpiperidin-3-yl)phenyl)pyrrolidin-1-yl)-N-((3-nitro-4-(((tetrahydro-2H-pyran-4-yl)methyl)amino)phenyl)sulfonyl)-[1,1′-biphenyl]-4-carboxamide]	46	> 10000	–
CN(C)C1CCCN(c2ccccc2C2CCCN2c2ccc(-c3ccc(C(=O)NS(=O)(=O)c4ccc(NCC5CCOCC5)c([N+](=O)[O-])c4)c(Oc4cnc5[nH]ccc5c4)c3)cc2)C1 (single isomer, unassigned) [Example A118a, 3-((1H-pyrrolo[2,3-b]pyridin-5-yl)oxy)-4′-(2-(2-(3-(dimethylamino)piperidin-1-yl)phenyl)pyrrolidin-1-yl)-N-((3-nitro-4-(((tetrahydro-2H-pyran-4-yl)methyl)amino)phenyl)sulfonyl)-[1,1′-biphenyl]-4-carboxamide]	3.7	979	–
CN(C)C1CCCN(c2ccccc2C2CCCN2c2ccc(-c3ccc(C(=O)NS(=O)(=O)c4ccc(NCC5CCOCC5)c([N+](=O)[O-])c4)c(Oc4cnc5[nH]ccc5c4)c3)cc2)C1 (single isomer, unassigned) [Example A118b, 3-((1H-pyrrolo[2,3-b]pyridin-5-yl)oxy)-4′-(2-(2-(3-(dimethylamino)piperidin-1-yl)phenyl)pyrrolidin-1-yl)-N-((3-nitro-4-(((tetrahydro-2H-pyran-4-yl)methyl)amino)phenyl)sulfonyl)-[1,1′-biphenyl]-4-carboxamide]	1.2	459	–
O=C(NS(=O)(=O)c1ccc(NCC2CCOCC2)c([N+](=O)[O-])c1)c1ccc(-c2ccc(N3CC(F)(F)CC3c3ccccc3C3CC3)cc2)cc1Oc1cnc2[nH]ccc2c1 (single isomer, unassigned) [Example A147a, (R or S)-3-((1H-pyrrolo[2,3-b]pyridin-5-yl)oxy)-4′-(2-(2-cyclopropylphenyl)-4,4-difluoropyrrolidin-1-yl)-N-((3-nitro-4-(((tetrahydro-2H-pyran-4-yl)methyl)amino)phenyl)sulfonyl)-[1,1′-biphenyl]-4-carboxamide]	24	–	–
O=C(NS(=O)(=O)c1ccc(NCC2CCOCC2)c([N+](=O)[O-])c1)c1ccc(-c2ccc(N3CC(F)(F)CC3c3ccccc3C3CC3)cc2)cc1Oc1cnc2[nH]ccc2c1 (single isomer, unassigned) [Example A147b, (S or R)-3-((1H-pyrrolo[2,3-b]pyridin-5-yl)oxy)-4′-(2-(2-cyclopropylphenyl)-4,4-difluoropyrrolidin-1-yl)-N-((3-nitro-4-(((tetrahydro-2H-pyran-4-yl)methyl)amino)phenyl)sulfonyl)-[1,1′-biphenyl]-4-carboxamide]	4.9	–	–
O=C(NS(=O)(=O)c1ccc(NCC2CCOCC2)c([N+](=O)[O-])c1)c1ccc(N2CCC3(CCC(N4CCC[C@H]4c4ccccc4C4CC4)C3)CC2)cc1Oc1cnc2[nH]ccc2c1 (single isomer, unassigned) [Example F39a, (S or R) 2-((1H-pyrrolo[2,3-b]pyridin-5-yl)oxy)-4-(2-((S)-2-(2-cyclopropylphenyl)pyrrolidin-1-yl)-8-azaspiro[4.5]decan-8-yl)-N-((3-nitro-4-(((tetrahydro-2H-pyran-4-yl)methyl)amino)phenyl)sulfonyl)benzamide]	14	–	IC50 (Molt-4 cells [1]): > 10000 nM
O=C(NS(=O)(=O)c1ccc(NCC2CCOCC2)c([N+](=O)[O-])c1)c1ccc(N2CCC3(CCC(N4CCC[C@H]4c4ccccc4C4CC4)C3)CC2)cc1Oc1cnc2[nH]ccc2c1 (single isomer, unassigned) [Example F39b, (R or S) 2-((1H-pyrrolo[2,3-b]pyridin-5-yl)oxy)-4-(2-((S)-2-(2-cyclopropylphenyl)pyrrolidin-1-yl)-8-azaspiro[4.5]decan-8-yl)-N-((3-nitro-4-(((tetrahydro-2H-pyran-4-yl)methyl)amino)phenyl)sulfonyl)benzamide]	105	> 10000	–
O=C(NS(=O)(=O)c1ccc(NCC2CCOCC2)c([N+](=O)[O-])c1)c1ccc(N2CCC3(CC2)CC(N2CCCC2c2cccc(Cl)c2C2CC2)C3)cc1Oc1cnc2[nH]ccc2c1 (single isomer, unassigned) [Example F72b, (S or R)-2-((1H-pyrrolo[2,3-b]pyridin-5-yl)oxy)-4-(2-(2-(3-chloro-2-cyclopropylphenyl)pyrrolidin-1-yl)-7-azaspiro[3.5]nonan-7-yl)-N-((3-nitro-4-(((tetrahydro-2H-pyran-4-yl)methyl)amino)phenyl)sulfonyl)benzamide]	42	4300	–
CCc1c(Cl)cccc1C1CCCN1C1CC2(CCN(c3ccc(C(=O)NS(=O)(=O)c4ccc(NCC5CCOCC5)c([N+](=O)[O-])c4)c(Oc4cnc5[nH]ccc5c4)c3)CC2)C1 (single isomer, unassigned) [Example F74a, (R or S)-2-((1H-pyrrolo[2,3-b]pyridin-5-yl)oxy)-4-(2-(2-(3-chloro-2-ethylphenyl)pyrrolidin-1-yl)-7-azaspiro[3.5]nonan-7-yl)-N-((3-nitro-4-(((tetrahydro-2H-pyran-4-yl)methyl)amino)phenyl)sulfonyl)benzamide]	30	–	IC50 (Molt-4 cells [1]): 7530 nM
CCc1c(Cl)cccc1C1CCCN1C1CC2(CCN(c3ccc(C(=O)NS(=O)(=O)c4ccc(NCC5CCOCC5)c([N+](=O)[O-])c4)c(Oc4cnc5[nH]ccc5c4)c3)CC2)C1 (single isomer, unassigned) [Example F74b, (S or R)-2-((1H-pyrrolo[2,3-b]pyridin-5-yl)oxy)-4-(2-(2-(3-chloro-2-ethylphenyl)pyrrolidin-1-yl)-7-azaspiro[3.5]nonan-7-yl)-N-((3-nitro-4-(((tetrahydro-2H-pyran-4-yl)methyl)amino)phenyl)sulfonyl)benzamide]	12	4140	–
O=C(NS(=O)(=O)c1ccc(NC[C@@H]2COCCO2)c([N+](=O)[O-])c1)c1ccc(C2=CCC(N3CCC[C@H]3c3ccccc3C3CC3)CC2)cc1Oc1cnc2[nH]ccc2c1 (single isomer, unassigned) [Example G9-b, (S or R)—N-((4-((((R)-1,4-dioxan-2-yl)methyl)amino)-3-nitrophenyl)sulfonyl)-3-((1H-pyrrolo[2,3-b]pyridin-5-yl)oxy)-4′-((S)-2-(2-cyclopropylphenyl)pyrrolidin-1-yl)-2′,3′,4′,5′-tetrahydro-[1,1′-biphenyl]-4-carboxamide]	28	6450	IC50 (RS4;11 cells [2]; read-out: Celluclar activity (IC50, nM) RS 4, 11): 28 nM; IC50 (Molt-4 cells [3]; read-out: Celluclar activity (IC50, nM) Molt-4): 6450 nM
CC(C)c1ccccc1[C@H]1CCCN1c1ccc(-c2ccc(C(=O)NS(=O)(=O)c3ccc(NCC4(F)CCOCC4)c([N+](=O)[O-])c3)c(Oc3cnc4[nH]ccc4c3)c2)cc1 [Example G85-R, (R)-3-((1H-pyrrolo[2,3-b]pyridin-5-yl)oxy)-N-((4-(((4-fluorotetrahydro-2H-pyran-4-yl)methyl)amino)-3-nitrophenyl)sulfonyl)-4′-(2-(2-isopropylphenyl)pyrrolidin-1-yl)-[1,1′-biphenyl]-4-carboxamide]	–	1610	IC50 (RS4;11 cells [4]; read-out: Cellular activity (IC50, nM) RS4, 11): 10 nM; IC50 (RS4;11 cells [4]; [5]): 10 nM; IC50 (Molt-4 cells [1]): 1840 nM
O=C(NS(=O)(=O)c1ccc(NCC2(F)CCOCC2)c([N+](=O)[O-])c1)c1ccc(-c2ccc(N3CCC[C@@H]3c3ccccc3C3CC3)cc2)cc1Oc1cnc2[nH]ccc2c1 [Example G94-R, (R)-3-((1H-pyrrolo[2,3-b]pyridin-5-yl)oxy)-4′-(2-(2-cyclopropylphenyl)pyrrolidin-1-yl)-N-((4-(((4-fluorotetrahydro-2H-pyran-4-yl)methyl)amino)-3-nitrophenyl)sulfonyl)-[1,1′-biphenyl]-4-carboxamide]	–	1940	–
